Experimental data: PubChem BioAssay AID1346428 (National Center for Advancing Translational Sciences (NCATS), 2018)
In all, about 48,000 compounds went through this assay and about 1,200 (2.5%) were called active. Inconclusive results (about 2%) are left out.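 Rule for the calls: active = activation of at least 60% and not above a set upper limit (about 1 call in 100 departs from these limits); inconclusive = activation of 40% to 60%, or above that upper limit; inactive = activation under 40%.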 The list shows a part of the results.

molecular target: Probable G-protein coupled receptor 32 (Homo sapiens) (UniProt O75388); assay: qHTS for Agonists of Human Resolvin D1 Receptor DRV1; conditions: CHO-K1 GPR32 beta-arrestin PathHunter luminescence, 90 min; at 76.9 µM; active compounds read high; zero percent set by DMSO-only wells; note: 0% is about no effect
Outline: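 PathHunter enzyme-fragment complementation, CHO-K1 GPR32 stable line; 2,500 cells/well, overnight attach; cpd 90 min 37 °C 5% CO2; detection reagent 1 h RT; chemiluminescence. DMSO = EC0.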

UniProt O75388, sequence (O75388 whole entry, looked up, the tested form may be a part): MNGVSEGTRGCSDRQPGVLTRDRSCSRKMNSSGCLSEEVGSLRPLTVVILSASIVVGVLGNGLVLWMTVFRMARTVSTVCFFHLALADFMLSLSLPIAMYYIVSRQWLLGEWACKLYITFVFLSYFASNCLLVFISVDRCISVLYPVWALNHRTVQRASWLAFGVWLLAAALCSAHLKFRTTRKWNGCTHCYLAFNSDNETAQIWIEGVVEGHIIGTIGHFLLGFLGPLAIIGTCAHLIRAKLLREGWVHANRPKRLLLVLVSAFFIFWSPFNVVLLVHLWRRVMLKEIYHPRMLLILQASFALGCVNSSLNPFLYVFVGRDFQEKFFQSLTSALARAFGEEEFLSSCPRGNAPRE

activation, inactive:
COc1cccc(NC(=O)CSc2nc3c(oc4ccccc43)c(=O)n2Cc2ccco2)c1 -15.9%
COc1cc(-c2noc(CN3CCN(c4ccccc4)CC3)n2)cc(OC)c1OC 12%
CC(C)CCNC(=O)CCCN1C(=O)c2ccccc2Sc2ncccc21 -16.6%
Cc1cn2c(=O)cc(COC(=O)c3cccc(NC(=O)COc4ccccc4Cl)c3)nc2s1 -15.3%
COc1cc(OC)cc(C(=O)Oc2c(Sc3ccccc3)c(C)nn2C(C)(C)C)c1 -10.8%
CCc1ccc(C2c3c(-c4ccccc4O)n[nH]c3C(=O)N2Cc2ccncc2)cc1 (stereo not drawn) -2.24%
Cc1cccc(NC(=O)C(=O)NCC(c2ccc3c(c2)OCO3)N2CCOCC2)c1C (stereo not drawn) -8.69%
CCOC(=O)c1ccccc1NC(=O)N1CCc2c(sc(C)c2CC)C1c1ccccc1 (stereo not drawn) -7.07%
COc1ccccc1-c1nc2c(c(SCc3cccc(Cl)c3)n1)Cc1c(CO)cnc(C)c1O2 7.85%
O=C(Nc1cccs1)Nc1cc(C(F)(F)F)ccc1Cl 10.6%
Cc1ccc(Cl)cc1N1CCN(C(=O)c2cnc(N3CCOCC3)c3ccccc23)CC1 -25%
Cc1cc(C)c(NC(=O)C2CCN(c3nc4ccccc4[nH]3)CC2)c(C)c1 -9.97%
CCOc1ccc(-n2c(Cc3ccccc3)nnc2SCc2nc(-c3ccccc3OC)no2)cc1 -33.3%
CN1CCN(C(CNC(=O)c2cccc(F)c2)c2ccc3c(c2)OCO3)CC1 (stereo not drawn) 7.35%
CCOc1ccc(CCNC(=O)CCc2c(C)nc3c4c(C)cc(C)nc4nn3c2C)cc1 -17.7%
COC(=O)c1sccc1S(=O)(=O)N1CCN(c2ccccc2)CC1 -6.89%
COc1ccccc1C1C=C(c2ccc(F)cc2)Nc2nc(-c3ccc(Cl)cc3)nn21 (stereo not drawn) -17.1%
CCN(CC)S(=O)(=O)c1ccc2c(c1)N(CC(=O)NCCCN1CCN(c3ccccc3F)CC1)C(=O)CO2 -16.6%
COc1cccc(NC(=O)NCc2ccc3c(c2)CCN3C(=O)c2ccccc2)c1 15.9%
Cc1cccc(C(=O)Nc2sc3c(c2C(=O)NCc2ccco2)CCCC3)c1 -1.32%
Cc1ccc2[nH]c(=O)c3cc(C(=O)N4CCN(c5ccccc5)CC4)sc3c2c1 -34.9%
CC(C)c1ccc(C2N3CC4(C)CN2CC(c2ccccc2)(C3)C4=O)cc1 (stereo not drawn) 3.86%
CCc1ccc(NC(=O)c2cc(C(C)=O)n3ccccc23)cc1 -19.3%
